Laboratory results taken from article PMC4336329 (PLoS ONE, 2015).
Screen size: about 310,000 compounds; about 14,000 (4.5%) showed an effect of 50% or more. Effects have a minus sign here. The list shows a part of the results.

target: human ether-à-go-go-related gene (hERG) potassium channel (human, UniProt Q12809); assay: primary screen, population patch clamp on CHO cells stably expressing hERG
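Note: peak tail current of the secondary pulse compared with the same well before compound.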

Sequence of human ether-à-go-go-related gene (hERG) potassium channel (Q12809 whole entry, looked up): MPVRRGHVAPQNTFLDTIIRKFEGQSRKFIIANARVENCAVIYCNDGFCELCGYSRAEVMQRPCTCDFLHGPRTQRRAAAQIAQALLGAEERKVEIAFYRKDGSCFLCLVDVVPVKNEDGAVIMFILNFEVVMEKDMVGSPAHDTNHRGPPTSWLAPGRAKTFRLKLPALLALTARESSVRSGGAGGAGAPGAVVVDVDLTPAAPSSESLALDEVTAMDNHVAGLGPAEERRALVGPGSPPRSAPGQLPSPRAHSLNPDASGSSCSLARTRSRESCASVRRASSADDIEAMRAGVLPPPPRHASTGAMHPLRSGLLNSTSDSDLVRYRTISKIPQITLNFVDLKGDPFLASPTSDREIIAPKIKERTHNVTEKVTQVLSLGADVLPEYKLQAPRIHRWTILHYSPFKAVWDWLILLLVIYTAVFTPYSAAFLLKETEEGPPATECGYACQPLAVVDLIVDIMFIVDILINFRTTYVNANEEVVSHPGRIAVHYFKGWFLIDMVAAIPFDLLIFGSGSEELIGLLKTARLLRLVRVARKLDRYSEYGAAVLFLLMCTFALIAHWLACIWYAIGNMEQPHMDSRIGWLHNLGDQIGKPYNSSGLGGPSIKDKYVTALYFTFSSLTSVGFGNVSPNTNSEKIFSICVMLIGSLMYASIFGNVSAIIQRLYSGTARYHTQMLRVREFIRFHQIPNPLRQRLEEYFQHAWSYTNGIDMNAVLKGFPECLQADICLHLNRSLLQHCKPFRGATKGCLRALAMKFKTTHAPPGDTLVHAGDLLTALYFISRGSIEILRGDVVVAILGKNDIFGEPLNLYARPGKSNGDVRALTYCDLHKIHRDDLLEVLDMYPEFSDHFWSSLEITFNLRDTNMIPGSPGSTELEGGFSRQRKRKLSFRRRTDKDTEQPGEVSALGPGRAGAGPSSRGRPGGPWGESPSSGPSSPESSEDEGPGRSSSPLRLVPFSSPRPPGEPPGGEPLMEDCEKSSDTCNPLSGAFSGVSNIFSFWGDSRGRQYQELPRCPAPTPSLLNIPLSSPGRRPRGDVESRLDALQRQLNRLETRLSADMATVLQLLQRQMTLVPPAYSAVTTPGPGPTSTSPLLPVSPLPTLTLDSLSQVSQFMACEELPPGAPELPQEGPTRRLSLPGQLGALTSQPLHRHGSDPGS

| Compound | hERG current change (%, negative = inhibition) at 10uM |
| --- | --- |
| COC(C[C@H]1O[C@H]1C(=O)[C@H](C)OCc1ccccc1)OC | 14.5% |
| NC(=O)N\N=C/C=C/C=C/c1ccc(F)cc1 | 16.1% |
| Cc1nn(C)cc1S(=O)(=O)N1CCN(c2cccc(Cl)c2)CC1 | 8.55% |
| Cc1ccc(NC(=O)CNCc2ccccc2)cc1Br.Cl | -26.1% |
| CC(CCn1cccn1)NC(=O)CCc1nnc(C2CCCCC2)o1 (centres unmarked) | 23.8% |
| CC(C)CC1(C(=O)O)NC(c2ccccc2O)C2C(=O)N(C(C)C)C(=O)C21 (centres unmarked) | 23.8% |
| O=C(COc1ccccc1)Nc1cc2c3c(c1)CC(=O)N3CCC2 | -36% |
| COc1ccc(N=CC2=C(O)CCCC2=O)cc1 | 5.25% |
| O=C(NC(N1CCCC1)C(Cl)(Cl)Cl)c1ccccc1 (centres unmarked) | 12.6% |
| Cc1ccc(NC(=O)CCNS(=O)(=O)c2ccc3c(c2)CCC(=O)N3)cc1C | 19.7% |
| COc1cc2nc(CN3CCN(S(=O)(=O)c4c(F)cccc4F)CC3)[nH]c(=O)c2cc1OC | -33.4% |
| CCOc1ccc(NS(=O)(=O)c2cc3c4c(c2)C(C)C(=O)N4CCC3)cc1 (centres unmarked) | -0.0129% |
| O=C(O)Cc1ccc(NC(=O)c2ccc(NC(=O)c3ccco3)cc2)cc1 | 18.9% |
| CC(=O)Nc1nc(C)c(CCCOc2ccc([N+](=O)[O-])cc2)c(=O)[nH]1 | 0.762% |
| COc1ccc(NC(=O)CN2CCC(C(N)=O)(N3CCCCC3)CC2)cc1 | 0.362% |
| C[C@@H](NC(=O)c1nc[nH]c1C(=O)N1CCN(c2ccccc2)CC1)c1ccccc1 | 4.6% |
| Cc1cccc(OCCOC(=O)C2CCN(S(=O)(=O)c3cccs3)CC2)c1 | 6.58% |
| S=C(Nc1ccccc1)Nc1ccc(OCc2ccccc2)cc1 | -0.702% |
| CCNc1nc(SC(C)C(=O)Nc2ccccc2)nc(N(C)C)n1 (centres unmarked) | 11.8% |
| COC(=O)c1cccc(C23CC4(C2)[C@H](CN(Cc2ccc(-c5ccccc5)cc2)[C@@H]4c2ccccc2)C3c2ccc(C(F)(F)F)cc2)c1 (some centres unmarked) | 16.5% |
| Cc1ccc(Cn2cc(C=O)c(-c3ccc(C)cc3)n2)cc1 | 9.59% |
| Cc1nc2sc(-c3ccccc3)cc2c(=O)[nH]1 | 12.6% |

| Compound | hERG current change (%, negative = inhibition) at 10uM |
| --- | --- |
| COc1ccccc1CN(C)C(=O)c1ccc(COc2ccccc2)cc1 | 6.77% |
| CCN(CC)CCN(C)Cc1nc(C(c2ccccc2)c2ccccc2)no1 | -57.7% |
| CCOc1cc(C(=S)N2CCCC2)ccc1O | 16.7% |
| CCOc1ccc(-n2nc3c(Cl)nnc(C)c3c2C)cc1 | -10.7% |
| CCOc1ccc(OCCNCc2ccc(OC(C)C(=O)N(C)C)c(OCC)c2)cc1.O=C(O)C(=O)O (centres unmarked) | -9.05% |
| CCc1cccc2c(C(=O)CSc3nncn3-c3ccccc3OC)c[nH]c12 | -11.4% |
| COC(=O)c1[nH]c2cccc(OC)c2c1NC(=O)CN(C)CC1OCCO1 | -12.5% |
| Cc1nc(NCCc2ccc(F)cc2)c2nnn(Cc3ccccc3)c2n1 | -4.32% |
| COc1ccccc1-c1ccc(=O)n(CC(=O)NCc2ccc3c(c2)OCO3)n1 | -3.49% |
| CCN(CC)C(=S)SCC(=O)Nc1nc(=O)c2ccccc2s1 | 28.8% |
| COC(=O)c1ccccc1OCC(=O)NC1CCCCC1 | -21.3% |
| CCc1noc(N)c1C(=O)Nc1ccc(Cl)cc1 | -31.3% |
| CC(=O)NC1C(OC(=O)Cc2ccccc2)OC(COC(C)=O)C(OC(C)=O)C1OC(C)=O (centres unmarked) | -0.962% |
| CN(CC(=O)NCc1cccnc1)S(=O)(=O)c1ccc(F)cc1 | 21.3% |
| CC(C)N(Cc1nc(-c2ccccc2)no1)C(=O)CCCN1C(=O)c2ccccc2C1=O | -43.8% |
| Cc1ccc(S(=O)(=O)N/N=C/c2ccc(OCC(=O)N3CCOCC3)cc2)cc1 | -6.71% |
| O=P(c1cccs1)(c1cccs1)c1cccs1 | -12% |
| CCOc1ccccc1/C=N/NC(=O)Cc1csc(Nc2cccc(C(F)(F)F)c2)n1 | 4.05% |
| CC(C)(C)NC(=O)C1CN(S(=O)(=O)c2ccccc2)CCN1S(=O)(=O)c1ccccc1 (centres unmarked) | -7.3% |
| COCc1c(C(=O)N2CCN(CCOc3ccccc3)CC2)oc2ccccc12 | -63.5% |
| COc1ccccc1NC(=O)Nc1nc(CC(=O)Nc2ccccc2F)cs1 | 14.9% |
| O=C(O)c1ccc(/C=C2\COc3ccccc3C2=O)cc1 | -20.5% |
